Consider 14 molecules from the supplement of paper PMC4604168 (melanoma cell lines).

This is one part of the list. Single values are uncertain, as repeats are few or missing.
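Further: cell number obtained by counting DAPI-stained nuclei in high-throughput microscope images with image analysis software, screen run in 1,536-well plates.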

This test concerns IST-MEL1. As to the kind of experiment: cell count relative to DMSO control; melanoma cells; higher = more viable cells. The note with it: library dose: low library concentration; 72 h.
`N#CC[C@H](C1CCCC1)n1cc(-c2ncnc3[nH]ccc23)cn1` [ruxolitinib] + CCc1ccc(CCOc2ccc(CC3SC(=O)NC3=O)cc2)nc1 [pioglitazone] (first compound 1 µM, partner dose 2 µM) yielded a cell count of 97.5%.

The molecule `N#CC[C@H](C1CCCC1)n1cc(-c2ncnc3[nH]ccc23)cn1` [ruxolitinib] + Cn1cc(/C=C2\C(=O)Nc3cccnc32)c2ccccc21 [GW441756] (first compound 1 µM, partner dose 0.4 µM) registered a cell count of 89.2%.

`CC[C@]1(O)C[C@H]2CN(CCc3c([nH]c4ccccc34)[C@@](C(=O)OC)(c3cc4c(cc3OC)N(C=O)[C@H]3[C@@](O)(C(=O)OC)[C@H](OC(C)=O)[C@]5(CC)C=CCN6CC[C@]43[C@@H]65)C2)C1` [vincristine] + COc1cc2c(Oc3ccc4[nH]c(C)cc4c3F)ncnc2cc1OCCCN1CCCC1 [cediranib] (first compound 0.0001 µM, partner dose 0.4 µM): the cell count is 111%.

The molecule `Cc1cc(Nc2cc(N3CCN(C)CC3)nc(Sc3ccc(NC(=O)C4CC4)cc3)n2)n[nH]1` [Tozasertib] + CC1(C)NC(=O)N(c2ccc([N+](=O)[O-])c(C(F)(F)F)c2)C1=O [nilutamide] (first compound 0.006 µM, partner dose 1 µM) returned a cell count of 96.7%.

Regarding `N#CC[C@H](C1CCCC1)n1cc(-c2ncnc3[nH]ccc23)cn1` [ruxolitinib] + COc1ccc(COc2ccc(Cc3cnc(N)nc3N)cc2OC)cc1 [GW2580] (first compound 1 µM, partner dose 1 µM), the cell count worked out at 93.5%.

As for `N#CC[C@H](C1CCCC1)n1cc(-c2ncnc3[nH]ccc23)cn1` [ruxolitinib] + OCCn1cc(-c2cnc3nnn(Cc4ccc5ncccc5c4)c3n2)cn1 [PF04217903] (first compound 1 µM, partner dose 1 µM), the cell count was determined as 100%.

`N#CC[C@H](C1CCCC1)n1cc(-c2ncnc3[nH]ccc23)cn1` [ruxolitinib] + NCC(=O)Nc1ccc(-n2nc(C(F)(F)F)cc2-c2ccc3c(ccc4ccccc43)c2)cc1 [OSU03012] (first compound 1 µM, partner dose 1 µM) registered a cell count of 86.6%.

In turn, `N#CC[C@H](C1CCCC1)n1cc(-c2ncnc3[nH]ccc23)cn1` [ruxolitinib] + O=C(O)c1ccc(-c2c[nH]c3ncc(-c4ccccc4)cc23)cc1C1CCCC1 [GSK650394] (first compound 1 µM, partner dose 0.16 µM) returned a cell count of 91.5%.

`N#CC[C@H](C1CCCC1)n1cc(-c2ncnc3[nH]ccc23)cn1` [ruxolitinib] + N#Cc1c(O)c2c(-c3ccc(-c4ccccc4O)cc3)csc2[nH]c1=O [A769662] (first compound 1 µM, partner dose 2 µM): the cell count worked out at 104%.

In the case of `N#CC[C@H](C1CCCC1)n1cc(-c2ncnc3[nH]ccc23)cn1` [ruxolitinib] + CN(C)S(=O)(=O)c1ccc2c(c1)/C(=C/c1cc3c([nH]1)CCCC3)C(=O)N2 [SU6656] (first compound 1 µM, partner dose 0.4 µM), the cell count was determined as 92.4%.

`Cc1cc(Nc2cc(N3CCN(C)CC3)nc(Sc3ccc(NC(=O)C4CC4)cc3)n2)n[nH]1` [Tozasertib] + Cc1cc(N2CCOCC2)cc2[nH]c(-c3c(NC[C@@H](O)c4cccc(Cl)c4)cc[nH]c3=O)nc12 [BMS536924] (first compound 0.006 µM, partner dose 0.2 µM) displayed a cell count of 96.8%.

On to `Cc1cc(Nc2cc(N3CCN(C)CC3)nc(Sc3ccc(NC(=O)C4CC4)cc3)n2)n[nH]1` [Tozasertib] + COc1ccc2c(c1)CCC1C2CCC2(C)C(NCCCCCCN3C(=O)C=CC3=O)CCC12 [U73122] (first compound 0.006 µM, partner dose 0.4 µM), for which the cell count was determined as 114%.

In turn, `CC[C@]1(O)C[C@H]2CN(CCc3c([nH]c4ccccc34)[C@@](C(=O)OC)(c3cc4c(cc3OC)N(C=O)[C@H]3[C@@](O)(C(=O)OC)[C@H](OC(C)=O)[C@]5(CC)C=CCN6CC[C@]43[C@@H]65)C2)C1` [vincristine] + O=C1NC(=O)/C(=C/c2ccc(-c3ccc(F)cc3O)o2)S1 [AS252424] (first compound 0.0001 µM, partner dose 1 µM) showed a cell count of 99.8%.

For the molecule `Cc1cc(Nc2cc(N3CCN(C)CC3)nc(Sc3ccc(NC(=O)C4CC4)cc3)n2)n[nH]1` [Tozasertib] + O=C(Nc1ccccc1)c1cc([N+](=O)[O-])ccc1Cl [GW9662] (first compound 0.006 µM, partner dose 2 µM), the cell count was determined as 108%.
